{
  "source": "PubChem BioAssay AID686979",
  "about": "(National Center for Advancing Translational Sciences (NCATS), 2013)",
  "note": "About 50,000 (12%) of roughly 420,000 compounds were called active. The shares of active, inactive and inconclusive entries below differ from those in the screen. Calls come from the whole dose curve; as a rule, active = well fitted inhibition curve with a large enough effect; inconclusive = small, poorly fitted or top-dose-only effect; inactive = flat fitted curve, though single readings scatter. No potency is given beside an inconclusive call; the fits are too rough. % is set by controls: 0 for no effect and ±100 for the full control effect; potency is the fitted concentration of half-maximal effect; tags give direction and shape of the fitted curve.",
  "data": [
    {"test": "qHTS for Inhibitors of human tyrosyl-DNA phosphodiesterase 1 (TDP1): qHTS in cells in presence of CPT; note: nearly all actives have a fitted effect of over 55% in size", "conditions": "chicken DT40 Tdp1-/-;hTDP1 cells + 20 nM CPT, ATP luminescence, 48 h; activity change, negative = growth inhibition: at 46.2 µM (top of the series) unless noted", "outline": "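Cell growth measured by CellTiter-Glo luminescence after a minimum 48 h, 37 C compound exposure with 20 nM CPT in Tdp1-knockout DT40 cells stably expressing hTDP1, seeded 400/well; qHTS titration format.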", "values": [
      {"compound": "C=CCn1c(OCc2ccccc2)n[nH]c1=S", "Potency": "inactive"},
      {"compound": "O=C(NCc1ccccc1)c1cccc2c1C(=O)c1ccc(/C=C/c3ccccc3)cc1S2(=O)=O", "Potency": "inconclusive [inhibitor, single point]"},
      {"compound": "Cc1cc(C)c(C(=O)N(C)CC2CCCN(CCc3ccccc3F)C2)o1", "note": "(stereo not drawn)", "Potency": "inactive"},
      {"compound": "O=C(OCC(=O)N1CCCC1)c1c(Cl)cccc1Cl", "Potency": "inactive"},
      {"compound": "COc1ccc(CNC(=O)c2ccc(NC(=O)C3=CSCCO3)cc2)cc1", "Potency": "inconclusive [inhibitor, single point]"},
      {"compound": "Cc1ccc(-c2noc(-c3ccc(NCc4cccnc4)c([N+](=O)[O-])c3)n2)cc1", "Potency": "inconclusive [inhibitor, full curve]"},
      {"compound": "CC(C)N1CCC1(C)C(=O)Nc1nc2ccccc2[nH]1", "note": "(stereo not drawn)", "Potency": "inactive"},
      {"compound": "C(=N\\Nc1nc(N2CCCCC2)nc(N2CCCCC2)n1)/c1c[nH]c2ccccc12", "Potency": "inconclusive [inhibitor, single point]"},
      {"compound": "Cc1ccc(C(NC(=O)NCCCN2CCOCC2)=C(Cl)Cl)cc1F", "Potency": "active: 11.2 µM"},
      {"compound": "Cc1cccc(C)c1OCC(=O)N/N=C/c1cccnc1", "Potency": "inconclusive [inhibitor, partial curve]"},
      {"compound": "O=C(O)c1ccccc1C(=O)OC1CCCC2CCCC21", "note": "(stereo not drawn)", "Potency": "inactive"},
      {"compound": "O=c1c2oc3ccccc3c2n(Cc2ccc(F)cc2)c(=O)n1Cc1ccco1", "activity change, negative = growth inhibition": "inconclusive: -30.5% [inhibitor]"},
      {"compound": "CCOc1ccc(OCC)c(NC(=O)CCS(=O)(=O)c2ccc(C)cc2)c1", "Potency": "inactive"},
      {"compound": "O=C(CN1CCN(C(=O)C2CCCO2)CC1)Nc1cc(Cl)ccc1Cl", "note": "(stereo not drawn)", "activity change, negative = growth inhibition": "inconclusive: -37.3% [inhibitor]"},
      {"compound": "C/C(=N\\NC(=S)NCCc1ccccc1)c1ccc(Cl)cc1", "Potency": "inconclusive [inhibitor, single point]"},
      {"compound": "CCn1c(C)c(C)c2cc(C(=O)N3CCCC3)ccc21", "Potency": "inactive"},
      {"compound": "CN(C)c1ccnc2sc(C(N)=O)c(N)c12", "Potency": "active: 1.64 µM"},
      {"compound": "COc1ccc(/C=c2/sc3n(c2=O)C(c2ccccc2OC)C2=C(N=3)c3ccccc3CC2)cc1O", "note": "(stereo not drawn)", "Potency": "active: 29.1 µM"},
      {"compound": "CC(Nc1cccc2ccccc12)C(=O)N/N=C/c1ccccn1", "note": "(stereo not drawn)", "Potency": "active: 25.9 µM"},
      {"compound": "CCc1ccc(NC(=O)NCc2cccnc2)cc1", "Potency": "inactive"},
      {"compound": "COc1ccc(CNS(=O)(=O)c2cc(Br)cc3c2N(C(C)=O)C(C)C3)cc1", "note": "(stereo not drawn)", "Potency": "inconclusive [inhibitor, partial curve]"},
      {"compound": "CCOC(=O)C1CCN(C(c2ccc(OCC)cc2)c2c(O)cc(C)n(CCOC)c2=O)CC1", "note": "(stereo not drawn)", "Potency": "inactive"},
      {"compound": "CCOC(=O)c1c(NS(=O)(=O)c2ccc(Br)cc2)sc2c1CCC2", "Potency": "inconclusive [inhibitor, single point]"},
      {"compound": "CCN(CC)S(=O)(=O)c1cccc(NC(=O)c2ccc(SC)cc2OC)c1", "Potency": "active: 25.9 µM"},
      {"compound": "COCCN(C(=O)C1CC(=O)N(Cc2ccc(C)cc2)C1)c1c(N)n(CC(C)C)c(=O)[nH]c1=O", "note": "(stereo not drawn)", "Potency": "inconclusive [inhibitor, single point]"},
      {"compound": "Nc1ccc2ncccc2c1N", "Potency": "inconclusive [inhibitor, partial curve]"},
      {"compound": "COc1ccccc1N(C(=O)Cn1nnc2ccccc21)C(C(=O)NCc1ccco1)c1ccc(C)o1", "note": "(stereo not drawn)", "Potency": "inconclusive [inhibitor, partial curve]"},
      {"compound": "COc1ccc(NC(=O)C(=O)N2N=C(C(C)C)CC2(O)C(F)(F)F)cc1", "note": "(stereo not drawn)", "Potency": "active: 5.8 µM"},
      {"compound": "CC(=O)Oc1ccc2oc3c(c2c1)C(=O)CCC3", "Potency": "inactive"},
      {"compound": "O=C(CN1CC[n+]2c(-c3cccs3)csc21)c1ccc(-c2ccccc2)cc1", "Potency": "active: 9.2 µM"},
      {"compound": "COc1cc(CNCc2ccc(SC)cc2)cc(OC)c1", "Potency": "inconclusive [inhibitor, single point]"},
      {"compound": "Cc1nc2cc(C(F)(F)F)ccc2n1CCNc1nc(-c2ccc(F)cc2)cs1", "Potency": "inconclusive [inhibitor, single point]"},
      {"compound": "O=C(NCCN1CCOCC1)c1cccc(S(=O)(=O)N(Cc2ccccc2)c2ccccc2)c1", "Potency": "inconclusive [inhibitor, single point]"},
      {"compound": "Cc1nn(-c2ccccc2)c(Cl)c1/C=N/NC(=O)c1[nH]ncc1Br", "Potency": "inconclusive [inhibitor, single point]"},
      {"compound": "CCOC(=O)c1ccc2nc(C)cc(Nc3ccc(OC(C)C)cc3)c2c1", "Potency": "active: 23.1 µM"},
      {"compound": "Cc1ccc(C=Nc2ccccc2C(N)=O)cc1", "Potency": "active: 2.82 µM"},
      {"compound": "COc1ccccc1C(CNc1ccc(S(=O)(=O)N2CCCC2)cc1[N+](=O)[O-])N(C)C", "note": "(stereo not drawn)", "Potency": "active: 13 µM"},
      {"compound": "COc1ccccc1N1CCN(C(=O)c2cc(-c3ccccc3)nc3c2cnn3C(C)C)CC1", "Potency": "inactive"},
      {"compound": "C=CCOC(=O)C1=C(C)NC(SCC(=O)Nc2nccs2)=C(C#N)C1c1cccs1", "note": "(stereo not drawn)", "Potency": "inconclusive [inhibitor, single point]"},
      {"compound": "Cn1cc(CN2CCC(C(=O)Nc3cccc(-c4cccc(F)c4)c3)CC2)cn1", "Potency": "inconclusive [inhibitor, single point]"},
      {"compound": "CCOC(=O)c1cccc(NS(=O)(=O)c2ccc3[nH]c4c(c3c2)CCCC4)c1", "Potency": "active: 23.1 µM"},
      {"compound": "CCc1noc(C)c1C(=O)N(C)CC(=O)Nc1ccc(OC)cc1", "Potency": "inactive"},
      {"compound": "Cc1cc(C)c2[nH]c(=O)c(C(c3nnnn3Cc3ccc4c(c3)OCO4)N3CCC(C)CC3)cc2c1", "note": "(stereo not drawn)", "Potency": "inconclusive [inhibitor, single point]"},
      {"compound": "N#CC1=C(N)NC(=S)C(C(N)=O)C1c1ccccc1F", "note": "(stereo not drawn)", "Potency": "inconclusive [inhibitor, single point]"},
      {"compound": "Cc1ccc(OC(C)C(=O)N2CCN(CCc3ccncc3)CC2)cc1C", "note": "(stereo not drawn)", "Potency": "inactive"},
      {"compound": "COc1ccc(NC(=O)c2cc(S(=O)(=O)N3CCCCC3)ccc2N2CCCCC2)cn1", "Potency": "inconclusive [inhibitor, partial curve]"},
      {"compound": "CC[C@@H](C)[C@@H]1CN([C@@H](C)CN2CCC[C@H]2CN2C(N)=NC[C@H]2CC(C)C)C(=N)N1CCCC1CCCC1", "Potency": "inconclusive [inhibitor, single point]"},
      {"compound": "CC(C)CC(=O)N=C1SC2CS(=O)(=O)CC2N1Cc1ccccc1Cl", "note": "(stereo not drawn)", "Potency": "inactive"},
      {"compound": "Cc1cccc(C(=O)NCCc2nc3ccccc3n2Cc2ccc(Cl)cc2)c1", "Potency": "active: 20.6 µM"},
      {"compound": "Cc1nc2ncccn2c1-c1csc(Nc2ccccc2)n1", "Potency": "active: 16.4 µM"},
      {"compound": "O=C(Nc1ccc(N2CCOCC2)c(Cl)c1)c1cccc(F)c1", "Potency": "inactive"},
      {"compound": "Cc1ccc(C)c(C(=O)COC(=O)C(C)N2C(=O)C3C4CCC(C4)C3C2=O)c1", "note": "(stereo not drawn)", "Potency": "inconclusive [inhibitor, single point]"},
      {"compound": "COCCCNC(=O)C1CCC(Cn2c(=O)c3sccc3n(C)c2=O)CC1", "note": "(stereo not drawn)", "Potency": "inactive"},
      {"compound": "O=C(C[n+]1ccc(/C=C/c2ccccc2)cc1)c1ccc2c(c1)OCCO2", "Potency": "inconclusive [inhibitor, single point]"},
      {"compound": "CNC(=S)N(CCO)Cc1cc2cc3c(cc2[nH]c1=O)OCCO3", "activity change, negative = growth inhibition": "inconclusive: -30.3% [inhibitor]"},
      {"compound": "CCc1ccc(OCC2c3cc(OC)c(OC)cc3CCN2C(=S)NCCOC)cc1", "note": "(stereo not drawn)", "Potency": "inconclusive [inhibitor, single point]"},
      {"compound": "COc1ccc2c3c(cccc13)OCC2=O", "Potency": "inconclusive [inhibitor, partial curve, poor fit]"},
      {"compound": "Cc1cc(=O)[nH]c(N/N=C/c2ccc(Cl)c([N+](=O)[O-])c2)n1", "Potency": "inconclusive [inhibitor, partial curve]"},
      {"compound": "CC(C)c1cc(=O)n2[nH]c(SCc3ccccc3Cl)nc2n1", "Potency": "inconclusive [inhibitor, single point]"},
      {"compound": "CCC(CC)C(=O)Nc1ccccc1SCc1cc(=O)c2cccc(C)c2[nH]1", "Potency": "inconclusive [inhibitor, single point]"},
      {"compound": "Cc1ccccc1-c1noc(C2CCCCC2)n1", "Potency": "inconclusive [inhibitor, single point]"},
      {"compound": "O=S(=O)(NCc1ccc(Cl)cc1)c1ccc2[nH]c3c(c2c1)CCCC3", "Potency": "inconclusive [inhibitor, partial curve]"},
      {"compound": "COc1cc2c(cc1OC)C1(Nc3c-2c(-c2ccccc2)nn3-c2ccccc2)C(=O)Nc2ccccc21", "note": "(stereo not drawn)", "Potency": "inconclusive [inhibitor, single point]"},
      {"compound": "Cc1ccc(NC(=O)c2ccc(Cl)cc2Cl)c(C(=O)c2ccccc2)c1", "Potency": "inconclusive [inhibitor, single point]"},
      {"compound": "COC(=O)c1ccccc1NS(=O)(=O)c1ccc2c(c1)oc(=O)n2C", "Potency": "inconclusive [inhibitor, single point]"},
      {"compound": "COc1ccc(CC2(CO)CCN(Cc3cnc(-c4ccccc4C)nc3)CC2)cc1", "Potency": "inconclusive [inhibitor, single point]"},
      {"compound": "Cc1ccc(NC(=O)CN2CCN(c3ccccc3F)CC2)cc1F", "Potency": "inconclusive [inhibitor, single point]"},
      {"compound": "COc1cc(C(=O)NCCOc2cc(C)cc(C)c2)cc(OC)c1OC", "Potency": "active: 4.11 µM"},
      {"compound": "C=CCn1c(C)cc(C2=NNC(=NC(C)(C)C)SC2)c1C", "Potency": "inconclusive [inhibitor, single point]"},
      {"compound": "Cc1ccc(-c2nc(C=Nc3ccccc3)c(O)o2)cc1", "Potency": "inactive"},
      {"compound": "Cn1c(N)c(C(=O)COC(=O)c2cc(S(=O)(=O)N3CCOCC3)ccc2F)c(=O)n(C)c1=O", "Potency": "inactive"},
      {"compound": "O=C(CN1C(=O)NC2(CCCCCC2)C1=O)Nc1ccc(OC(F)(F)F)cc1", "Potency": "active: 14.6 µM"},
      {"compound": "CSc1ccc(Cn2c(C)c(C(=O)NCc3ccc4c(c3)OCCO4)sc2=O)cc1", "Potency": "inconclusive [inhibitor, single point]"}
    ]}
  ]
}
